Data published in patent US20230181756A1, “CCR7 ANTIBODY DRUG CONJUGATES FOR TREATING CANCER” (Novartis AG, priority 2020, published 2023).

T1: CCR7 on Mouse CD4+ T cells (Mus musculus, UniProt P47774)
T1 construct: endogenous in cells; host or cells: CD4+ T cells purified from PBMC of CD-1 mice
T1 sequence (P47774 25-378): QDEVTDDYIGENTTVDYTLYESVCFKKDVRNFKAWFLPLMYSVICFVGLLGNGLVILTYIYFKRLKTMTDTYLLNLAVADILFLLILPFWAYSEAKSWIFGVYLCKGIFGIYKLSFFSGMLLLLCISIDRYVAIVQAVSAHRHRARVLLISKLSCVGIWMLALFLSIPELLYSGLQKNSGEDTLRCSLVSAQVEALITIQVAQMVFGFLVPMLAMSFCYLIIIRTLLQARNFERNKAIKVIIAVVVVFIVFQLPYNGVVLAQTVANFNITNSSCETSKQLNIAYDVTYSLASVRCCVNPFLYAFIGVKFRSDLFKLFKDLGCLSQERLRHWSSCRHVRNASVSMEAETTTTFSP

T2: NIH3T3.mouse CCR7 (Mus musculus, UniProt P47774)
T2 construct: Full length human, cyno and mouse CCR7 genes were synthesized; expressed in transfected cells; host or cells: NIH/3T3 (retroviral transduction)
T2 sequence (P47774 25-378): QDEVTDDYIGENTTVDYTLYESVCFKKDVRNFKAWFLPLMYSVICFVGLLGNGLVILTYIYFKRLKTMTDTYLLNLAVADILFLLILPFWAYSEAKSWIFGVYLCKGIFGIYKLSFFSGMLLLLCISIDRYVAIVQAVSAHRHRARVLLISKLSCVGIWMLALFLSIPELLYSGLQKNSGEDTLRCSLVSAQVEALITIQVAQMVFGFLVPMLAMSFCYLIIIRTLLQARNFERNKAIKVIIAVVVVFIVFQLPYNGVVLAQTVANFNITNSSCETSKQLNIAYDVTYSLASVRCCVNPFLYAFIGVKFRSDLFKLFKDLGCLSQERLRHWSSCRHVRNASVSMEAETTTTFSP


Columns and labels:
[1] = tested on: CCR7 and CD20 expressing JVM2 cells; assay: surrogate ADCC reporter assay (Jurkat-V158 effector cells); format: cell-based; conditions: JVM2, CCR7 receptor # 66,500
Description: Capacity of candidate antibodies to mediate ADCC was assessed using a surrogate ADCC reporter assay. CCR7 and CD20 expressing JVM2 cells were used as target cells. JVM2 cells were washed and re-suspended at 8×10^4 cells/ml cells/ml. Effector cells in this assay were a Jurkat cell line stably expressing CD16V158 and an NFAT dependent luciferase reporter (Jurkat-V158); expression of luciferase is a surrogate for canonical ADCC signaling through CD16. Briefly, Jurkat-V158 cells grown in suspension were spun down to remove spent media, the pellet was resuspended in assay media and adjusted to 1.6×10^6 cells/ml cells/mL. Mix equal volumes of effector and target cells to make a master mix of cells yielding a target to effector cell ratio of 1:5 or 1:20. A titration of antibody was diluted in assay media with a final top concentration of 50 ug/mL in the assay well. 12.5 uL of Ab solution was added to a 384 well round bottom plate and then 12.5 ul of the master cell mix was added. Antibody and cells were mixed well by pipetting and incubated for 4 hours at 37° C. in 5% CO2. Following incubation, 15 uL of Bright Glo substrate (Promega #G7572) was added to each well and shaken for 5 min at RT at 1050 rpm. Luminescent signal was read on the Envision plate reader (Perkin Elmer). […]

ALL-SIL = assay: as above; format: cell-based; conditions: CCR7 receptor # 6,200
Description: (§1) Capacity of candidate antibodies to mediate ADCC was assessed using a surrogate ADCC reporter assay. CCR7 and CD20 expressing JVM2 cells were used as target cells. JVM2 cells were washed and re-suspended at 8×10^4 cells/ml cells/ml. Effector cells in this assay were a Jurkat cell line stably expressing CD16V158 and an NFAT dependent luciferase reporter (Jurkat-V158); expression of luciferase is a surrogate for canonical ADCC signaling through CD16. Briefly, Jurkat-V158 cells grown in suspension were spun down to remove spent media, the pellet was resuspended in assay media and adjusted to 1.6×10^6 cells/ml cells/mL. Mix equal volumes of effector and target cells to make a master mix of cells yielding a target to effector cell ratio of 1:5 or 1:20. A titration of antibody was diluted in assay media with a final top concentration of 50 ug/mL in the assay well. 12.5 uL of Ab solution was added to a 384 well round bottom plate and then 12.5 ul of the master cell mix was added. Antibody and cells were mixed well by pipetting and incubated for 4 hours at 37° C. in 5% CO2. Following incubation, 15 uL of Bright Glo substrate (Promega #G7572) was added to each well and shaken for 5 min at RT at 1050 rpm. Luminescent signal was read on the Envision plate reader (Perkin Elmer).
(§2) The ADCC assay was run with non-humanized 506E15 antibody as a representative ADCC-capable anti-CCR7 antibody across various cell lines with a range of CCR7 receptor numbers to determine the minimal receptor density needed for ADCC activity and if there is a sufficient safety margin over normal CCR7+ T cells. The table below summarizes some of the data.

CMLT-1 = assay: as above; format: cell-based; conditions: CMLT-1, CCR7 receptor # 29,000
Description: as §1, §2

DEL = assay: as above; format: cell-based; conditions: CCR7 receptor # 62,000
Description: as §1, §2

DND-41 = assay: as above; format: cell-based; conditions: DND-41, CCR7 receptor # 1,700
Description: as §1, §2

Jurkat V158 = assay: as above; format: cell-based; conditions: Jurkat V158, CCR7 receptor # 3,400
Description: as §1, §2

MOTN-1 = assay: as above; format: cell-based; conditions: MOTN-1, CCR7 receptor # 64,600
Description: as §1, §2

PEER = assay: as above; format: cell-based; conditions: CCR7 receptor # 8,700
Description: as §1, §2

SR786 = assay: as above; format: cell-based; conditions: SR786, CCR7 receptor # 27,800
Description: as §1, §2

Normal T cells = assay: ADCC activity on normal T cells (line of Table 6); format: cell-based; conditions: CCR7 receptor # <1.5K
Excerpt: as §2
As a consequence all candidates were switched to the Fc silent (DAPA) format to improve overall on-target safety.

[2] = molecular target: T1, CCR7 on Mouse CD4+ T cells; assay: FACS binding, cross-reactivity; design: species or system CD-1 mice
Description: (§3) The affinity of various antibodies and ADCs to CCR7 and its species orthologues was determined using FACS. Purified IgGs were titrated to determine EC50 values for binding to cell surface expressed CCR7.
(§4) For this purpose, CCR7 positive cells were harvested (adherent cells were detached with Accutase), washed twice with FACS buffer (PBS/3% FCS/0.02% sodium azide) and diluted to approximately 2×10^6 cells/ml in FACS buffer. All subsequent steps were done on ice to prevent internalization of the receptor. 100 μl cell suspension/well were transferred into 96-well U-bottom plates (Falcon). 2×10^5 cells/well were incubated with a serial dilution of antibody concentrations of the anti-CCR7 antibody-of-interest ranging across several logs, starting at a high of 100 nM for 60 minutes at 4° C., gently shaking. Following incubation, cells were spun down (1200 rpm, 2 min, 4° C.) and washed three times with FACS buffer. […] After a final wash, cells were resuspended in 100 μl of FACS buffer containing 0.2 μg/ml DAPI followed by readout on the flow cytometry machine (BD LSRFortessa Cell Analyzer; Cat #647177). Mean fluorescence intensity (MFI) of live, single cells was calculated in Flowjo 10.0.8 and exported into Graphpad Prism6 for EC50 determination. […]

CCR7 on Rat CD4+ T cells = assay: FACS binding, cross-reactivity; design: species or system Wistar rats
Description: as §3, §4

NIH3T3.mouse CCR7 = molecular target: T2, NIH3T3.mouse CCR7; assay: FACS binding, cross-reactivity
Description: as §3
(§5) For this purpose, CCR7 positive cells were harvested (adherent cells were detached with Accutase), washed twice with FACS buffer (PBS/3% FCS/0.02% sodium azide) and diluted to approximately 2×10^6 cells/ml in FACS buffer. All subsequent steps were done on ice to prevent internalization of the receptor. 100 μl cell suspension/well were transferred into 96-well U-bottom plates (Falcon). 2×10^5 cells/well were incubated with a serial dilution of antibody concentrations of the anti-CCR7 antibody-of-interest ranging across several logs, starting at a high of 100 nM for 60 minutes at 4° C., gently shaking. Following incubation, cells were spun down (1200 rpm, 2 min, 4° C.) and washed three times with FACS buffer. A fluorophore-conjugated anti-hFc gamma-APC (Jackson ImmunoResearch) detection antibody was added at 1:400 and samples were incubated for 1 h on ice in the dark, gently shaken. After a final wash, cells were resuspended in 100 μl of FACS buffer containing 0.2 μg/ml DAPI followed by readout on the flow cytometry machine (BD LSRFortessa Cell Analyzer; Cat #647177). Mean fluorescence intensity (MFI) of live, single cells was calculated in Flowjo 10.0.8 and exported into Graphpad Prism6 for EC50 determination.
(§6) In a similar experiment the antibodies were tested for cross-reactivity using engineered isogenic matched cell line sets (NIH3T3 series) and CD4+ T cells, which were purified from several PBMC batches from healthy donors as well as cynomolgus monkeys, Wistar rats and CD-1 mice. […] Only the non-humanized 121G12 antibody is rodent cross-reactive.

NIH3T3.rat CCR7 = assay: FACS binding, cross-reactivity
Description: as §3, §5, §6

NIH3T3.cyno CCR7 = assay: FACS binding, cross-reactivity; design: species or system cynomolgus monkey
Description: as §3, §4

Apparent FACS Affinity; EC50 (nM) [2]	Apparent FACS Affinity; EC50 (nM) (CCR7 on Rat CD4+ T cells)	Apparent FACS Affinity; EC50 (nM) (NIH3T3.mouse CCR7)	Apparent FACS Affinity; EC50 (nM) (NIH3T3.rat CCR7)	Apparent FACS Affinity; EC50 (nM) (NIH3T3.cyno CCR7)	Molecule	506E15 (max RLU), ADCC activity [1]	506E15 (max RLU), ADCC activity (ALL-SIL)	506E15 (max RLU), ADCC activity (CMLT-1)	506E15 (max RLU), ADCC activity (DEL)	506E15 (max RLU), ADCC activity (DND-41)	506E15 (max RLU), ADCC activity (Jurkat V158)	506E15 (max RLU), ADCC activity (MOTN-1)	506E15 (max RLU), ADCC activity (PEER)	506E15 (max RLU), ADCC activity (SR786)	506E15 IC50 (nM), ADCC activity (Normal T cells)
No binding	No binding	No binding	No binding	–	506E15 non-humanized CysMab: non-humanized anti-CCR7 antibody 506E15 in CysMab format (antibody) heavy: EVMLVESGGGLVKPGGSLKLSCAASGFTFSSYAMSWIRQTPEKRLEWVATISSGGSFTYYPDSVKGRFTISRDNVKNTLYLQMSSLRSEDTAMYYCARRASTVVGTDFDVWGAGTTVTVSSASTKGPSVFPLAPSSKSTSGGTAALGCLVKDYFPCPVTVSWNSGALTSGVHTFPAVLQSSGLYSLSSVVTVPSSSLGTQTYICNVNHKPSNTKVDKRV[human IgG1 Fc with S375C (EU numbers) omitted] light: DIQMTQSPSSLSASLGERVSLTCRASQDIGSSLNWLQQEPDGTIKRLIYATSSLDSGVPKRFSGSRSGSDYSLTISSLESEDFVVYYCLQYASSPPTFGGGTKLEIKRTVAAPSVFIFPPSDEQLKSGTASVVCLLNNFYPREAKVQWKVDNALQSGNSQESVTEQDSKDSTYSLSSTLTLSKADYEKHKVYACEVTHQGLSSPVTKSFNRGEC	5840 RLU	3720 RLU	4400 RLU	6480 RLU	3733 RLU	3267 RLU	5387 RLU	3360 RLU	4067 RLU	depletion in vivo
No binding	No binding	No binding	No binding	–	674J13 non-humanized CysMab: non-humanized anti-CCR7 antibody 674J13 in CysMab format (antibody) heavy: DVQLQESGPDLVKPSQSLSLTCTVTGYSITSGYSWHWIRQFPGNKLEWMAHIHSSGSTNYNPSLKSRISIIRDTSKNLFFLQLNSVTTEDTATYYCARGGVQAFAYWGQGTLVTVSAASTKGPSVFPLAPSSKSTSGGTAALGCLVKDYFPCPVTVSWNSGALTSGVHTFPAVLQSSGLYSLSSVVTVPSSSLGTQTYICNVNHKPSNTKVDKRV[human IgG1 Fc with S375C (EU numbers) omitted] light: QIVLTQSPAIMSASPGEKVTMTCSASSSVIYMHWYQQKSGTSPKRWIYDTSKLASGVPARFSGSGSGTSYSLTISSMEAEDAATYYCQQWSSNPLTFGAGTTLELKRTVAAPSVFIFPPSDEQLKSGTASVVCLLNNFYPREAKVQWKVDNALQSGNSQESVTEQDSKDSTYSLSSTLTLSKADYEKHKVYACEVTHQGLSSPVTKSFNRGEC	–	–	–	–	–	–	–	–	–	–
–	–	No binding	No binding	Binding	684E12 non-humanized CysMab: non-humanized anti-CCR7 antibody 684E12 in CysMab format (antibody) heavy: EVHLVESGGGLVKPGGSLKLSCAASGFTFSNFAMSWVRQTPEKRLEWVATISTGGTYTYYPDSVKGRFTISRDNAKKTLYLQMSSLRSEDTAMYYCTRRGYDGVDKWGQGTTLTVSSASTKGPSVFPLAPSSKSTSGGTAALGCLVKDYFPCPVTVSWNSGALTSGVHTFPAVLQSSGLYSLSSVVTVPSSSLGTQTYICNVNHKPSNTKVDKRV[human IgG1 Fc with S375C (EU numbers) omitted] light: DVVMTQTPLTLSVTIGQPASISCKSGQSLLDSDGKTYLNWFLQRPGQSPKRLIYLVSKLDSGVPDRFTGSGSGTDFTLKISRVEAEDLGVYYCWQGTHFPQTFGGGTKLEIKRTVAAPSVFIFPPSDEQLKSGTASVVCLLNNFYPREAKVQWKVDNALQSGNSQESVTEQDSKDSTYSLSSTLTLSKADYEKHKVYACEVTHQGLSSPVTKSFNRGEC	–	–	–	–	–	–	–	–	–	–
